# Laboratory results taken from the supplement of paper PMC8728848.
# The other results are listed elsewhere or left out.
# What was measured:
# Experiment in all cases: glycan array binding signal (z-score within array); higher = stronger binding
# Conditions in all cases: glycan notation: IUPAC condensed, linker removed
# [1] = molecular target: GlcNAc(b1-3)Gal(b1-4)GlcNAc(b1-3)Gal(b1-4)GlcNAc(b1-3)Gal(b1-4)GlcNAc(b1-2)Man(a1-3)[GlcNAc(b1-3)Gal(b1-4)GlcNAc(b1-3)Gal(b1-4)GlcNAc(b1-3)Gal(b1-4)GlcNAc(b1-2)Man(a1-6)]Man(b1-4)GlcNAc(b1-4)GlcNAc
# Procedure, shortened: (§1)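 The binding signal is a Z-score computed within each array and averaged over linkers. Arrays of the same protein sequence at different concentrations or buffers were also averaged together. Data originate from 3228 arrays in the Consortium for Functional Glycomics database, kept only where the protein sequence was available.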
# [2] = molecular target: GlcNAc(b1-3)Gal(b1-4)GlcNAc(b1-3)Gal(b1-4)GlcNAc(b1-3)Gal(b1-4)GlcNAc(b1-2)Man(a1-3)[GlcNAc(b1-3)Gal(b1-4)GlcNAc(b1-3)Gal(b1-4)GlcNAc(b1-3)Gal(b1-4)GlcNAc(b1-2)Man(a1-6)]Man(b1-4)GlcNAc(b1-4)[Fuc(a1-6)]GlcNAc
# Procedure, shortened: as §1
# [3] = molecular target: GlcNAc(b1-3)Gal(b1-4)GlcNAc(b1-3)Gal(b1-4)GlcNAc(b1-3)Gal(b1-4)GlcNAc(b1-2)[GlcNAc(b1-3)Gal(b1-4)GlcNAc(b1-3)Gal(b1-4)GlcNAc(b1-3)Gal(b1-4)GlcNAc(b1-6)]Man(a1-6)[GlcNAc(b1-3)Gal(b1-4)GlcNAc(b1-3)Gal(b1-4)GlcNAc(b1-3)Gal(b1-4)GlcNAc(b1-2)Man(a1-3)]Man(b1-4)GlcNAc(b1-4)[Fuc(a1-6)]GlcNAc
# Procedure, shortened: as §1
# [4] = molecular target: GlcNAc(b1-3)Gal(b1-4)GlcNAc(b1-3)Gal(b1-4)GlcNAc(b1-3)Gal(b1-4)GlcNAc(b1-3)Gal(b1-4)GlcNAc(b1-2)Man(a1-3)[GlcNAc(b1-3)Gal(b1-4)GlcNAc(b1-3)Gal(b1-4)GlcNAc(b1-3)Gal(b1-4)GlcNAc(b1-3)Gal(b1-4)GlcNAc(b1-2)Man(a1-6)]Man(b1-4)GlcNAc(b1-4)GlcNAc
# Procedure, shortened: as §1
# [5] = molecular target: GlcNAc(b1-3)Gal(b1-4)GlcNAc(b1-3)Gal(b1-4)GlcNAc(b1-3)Gal(b1-4)GlcNAc(b1-3)Gal(b1-4)GlcNAc(b1-2)Man(a1-3)[GlcNAc(b1-3)Gal(b1-4)GlcNAc(b1-3)Gal(b1-4)GlcNAc(b1-3)Gal(b1-4)GlcNAc(b1-3)Gal(b1-4)GlcNAc(b1-2)Man(a1-6)]Man(b1-4)GlcNAc(b1-4)[Fuc(a1-6)]GlcNAc
# Procedure, shortened: as §1
# [6] = molecular target: GlcNAc(b1-3)Gal(b1-4)GlcNAc(b1-3)Gal(b1-4)GlcNAc(b1-3)Gal(b1-4)GlcNAc(b1-3)Gal(b1-4)GlcNAc(b1-2)[GlcNAc(b1-3)Gal(b1-4)GlcNAc(b1-3)Gal(b1-4)GlcNAc(b1-3)Gal(b1-4)GlcNAc(b1-3)Gal(b1-4)GlcNAc(b1-6)]Man(a1-6)[GlcNAc(b1-3)Gal(b1-4)GlcNAc(b1-3)Gal(b1-4)GlcNAc(b1-3)Gal(b1-4)GlcNAc(b1-3)Gal(b1-4)GlcNAc(b1-2)Man(a1-3)]Man(b1-4)GlcNAc(b1-4)[Fuc(a1-6)]GlcNAc
# Procedure, shortened: as §1
# [7] = molecular target: GlcNAc(b1-3)Gal(b1-4)GlcNAc(b1-3)Gal(b1-4)GlcNAc(b1-3)GalNAc
# Procedure, shortened: as §1
# [8] = molecular target: GlcNAc(b1-3)Gal(b1-4)GlcNAc(b1-3)GalNAc
# Procedure, shortened: as §1
# [9] = molecular target: GlcNAc(b1-3)Gal(b1-4)GlcNAc(b1-3)[GlcNAc(b1-3)Gal(b1-4)GlcNAc(b1-3)]GalNAc
# Procedure, shortened: as §1
# [10] = molecular target: GlcNAc(b1-3)Gal(b1-4)GlcNAc(b1-6)[Gal(b1-3)]GalNAc
# Procedure, shortened: as §1
# [11] = molecular target: GlcNAc(b1-3)Gal(b1-4)GlcNAc(b1-6)[GlcNAc(b1-3)Gal(b1-3)]GalNAc
# Procedure, shortened: as §1
# [12] = molecular target: GlcNAc(b1-3)Gal(b1-4)GlcNAc(b1-6)[GlcNAc(b1-3)]Gal(b1-4)GlcNAc
# Procedure, shortened: as §1
# GlcNAc(b1-3)GalNAc = molecular target: GlcNAc(b1-3)GalNAc
# Procedure, shortened: as §1
# GlcNAc(b1-3)Man = molecular target: GlcNAc(b1-3)Man
# Procedure, shortened: as §1
# [13] = molecular target: GlcNAc(b1-3)[GlcNAc(b1-4)][GlcNAc(b1-6)]GlcNAc
# Procedure, shortened: as §1
# [14] = molecular target: GlcNAc(b1-3)[GlcNAc(b1-6)]Gal(b1-4)GlcNAc
# Procedure, shortened: as §1
# [15] = molecular target: GlcNAc(b1-3)[GlcNAc(b1-6)]GalNAc
# Procedure, shortened: as §1
# [16] = molecular target: GlcNAc(b1-3)[GlcNAc(b1-6)]GlcNAc(b1-4)GlcNAc
# Procedure, shortened: as §1
# [17] = molecular target: GlcNAc(b1-4)Gal(b1-4)GlcNAc
# Procedure, shortened: as §1
# GlcNAc(b1-4)GlcNAc = molecular target: GlcNAc(b1-4)GlcNAc
# Procedure, shortened: as §1
# [18] = molecular target: GlcNAc(b1-4)GlcNAc(b1-4)GlcNAc
# Procedure, shortened: as §1
# [19] = molecular target: GlcNAc(b1-4)GlcNAc(b1-4)GlcNAc(b1-4)GlcNAc(b1-4)GlcNAc
# Procedure, shortened: as §1
# [20] = molecular target: GlcNAc(b1-4)GlcNAc(b1-4)GlcNAc(b1-4)GlcNAc(b1-4)GlcNAc(b1-4)GlcNAc
# Procedure, shortened: as §1
# [21] = molecular target: GlcNAc(b1-4)[GlcNAc(b1-6)]GalNAc
# Procedure, shortened: as §1
# [22] = molecular target: GlcNAc(b1-6)Gal(b1-4)GlcNAc
# Procedure, shortened: as §1
# GlcNAc(b1-6)GalNAc = molecular target: GlcNAc(b1-6)GalNAc
# Procedure, shortened: as §1
# GlcNAc3Prop(b1-4)GlcNAc = molecular target: GlcNAc3Prop(b1-4)GlcNAc
# Procedure, shortened: as §1
# [23] = molecular target: GlcNAc6S(b1-3)Gal(b1-4)GlcNAc
# Procedure, shortened: as §1
# Kdn(a2-3)Gal(b1-3)GalNAc = molecular target: Kdn(a2-3)Gal(b1-3)GalNAc
# Procedure, shortened: as §1
# Kdn(a2-3)Gal(b1-3)GlcNAc = molecular target: Kdn(a2-3)Gal(b1-3)GlcNAc
# Procedure, shortened: as §1
# Kdn(a2-3)Gal(b1-4)Glc = molecular target: Kdn(a2-3)Gal(b1-4)Glc
# Procedure, shortened: as §1
# Kdn(a2-3)Gal(b1-4)GlcNAc = molecular target: Kdn(a2-3)Gal(b1-4)GlcNAc
# Procedure, shortened: as §1
# [24] = molecular target: Kdn(a2-3)Gal(b1-4)[Fuc(a1-3)]GlcNAc
# Procedure, shortened: as §1
# Kdn(a2-6)Gal(b1-4)GlcNAc = molecular target: Kdn(a2-6)Gal(b1-4)GlcNAc
# Procedure, shortened: as §1
# [25] = molecular target: Man(a1-2)Man(a1-2)Man(a1-3)Man
# Procedure, shortened: as §1
# [26] = molecular target: Man(a1-2)Man(a1-2)Man(a1-6)[Man(a1-3)]Man
# Procedure, shortened: as §1
# Man(a1-2)Man(a1-3)Man = molecular target: Man(a1-2)Man(a1-3)Man
# Procedure, shortened: as §1
# [27] = molecular target: Man(a1-2)Man(a1-3)[Man(a1-2)Man(a1-6)]Man
# Procedure, shortened: as §1
# [28] = molecular target: Man(a1-2)Man(a1-3)[Man(a1-2)Man(a1-6)]Man(a1-6)[Man(a1-2)Man(a1-2)Man(a1-3)]Man
# Procedure, shortened: as §1
# [29] = molecular target: Man(a1-2)Man(a1-3)[Man(a1-2)Man(a1-6)]Man(a1-6)[Man(a1-2)Man(a1-2)Man(a1-3)]Man(b1-4)GlcNAc(b1-4)GlcNAc
# Procedure, shortened: as §1
# [30] = molecular target: Man(a1-2)Man(a1-3)[Man(a1-2)Man(a1-6)]Man(a1-6)[Man(a1-3)[Man(a1-6)]Man(a1-6)]Man(b1-4)GlcNAc(b1-4)GlcNAc
# Procedure, shortened: as §1
# [31] = molecular target: Man(a1-2)Man(a1-3)[Man(a1-6)]Man(a1-6)[Man(a1-2)Man(a1-3)]Man(b1-4)GlcNAc(b1-4)GlcNAc
# Procedure, shortened: as §1
# [32] = molecular target: Man(a1-2)Man(a1-6)[Man(a1-3)]Man(a1-6)[Man(a1-2)Man(a1-2)Man(a1-3)]Man
# Procedure, shortened: as §1
# [33] = molecular target: Man(a1-2)Man(a1-6)[Man(a1-3)]Man(a1-6)[Man(a1-2)Man(a1-2)Man(a1-3)]Man(b1-4)GlcNAc(b1-4)GlcNAc
# Procedure, shortened: as §1
# Man(a1-3)[Man(a1-6)]Man = molecular target: Man(a1-3)[Man(a1-6)]Man
# Procedure, shortened: as §1
binder,measurement,setting,value
"GNA (Galanthus nivalis), P30617 (protein) MAKASLLILAAIFLGVITPSCLSDNILYSGETLSTGEFLNYGSFVFIMQEDCNLVLYDVDKPIWATNTGGLSRSCFLSMQTDGNLVVYNPSNKPIWASNTGGQNGNYVCILQKDRNVVIYGTDRWATGTHTGLVGIPASPPSEKYPTAGKIKLVTAK",glycan array binding signal (z-score),[1],-0.12
same,glycan array binding signal (z-score),[2],-0.013
same,glycan array binding signal (z-score),[3],-0.107
same,glycan array binding signal (z-score),[4],-0.108
same,glycan array binding signal (z-score),[5],-0.075
same,glycan array binding signal (z-score),[6],-0.126
same,glycan array binding signal (z-score),[7],-0.15
same,glycan array binding signal (z-score),[8],-0.187
same,glycan array binding signal (z-score),[9],-0.172
same,glycan array binding signal (z-score),[10],-0.17
same,glycan array binding signal (z-score),[11],-0.148
same,glycan array binding signal (z-score),[12],-0.158
same,glycan array binding signal (z-score),GlcNAc(b1-3)GalNAc,-0.197
same,glycan array binding signal (z-score),GlcNAc(b1-3)Man,-0.199
same,glycan array binding signal (z-score),[13],-0.159
same,glycan array binding signal (z-score),[14],-0.231
same,glycan array binding signal (z-score),[15],-0.199
same,glycan array binding signal (z-score),[16],-0.208
same,glycan array binding signal (z-score),[17],-0.245
same,glycan array binding signal (z-score),GlcNAc(b1-4)GlcNAc,-0.229
same,glycan array binding signal (z-score),[18],-0.208
same,glycan array binding signal (z-score),[19],-0.212
same,glycan array binding signal (z-score),[20],-0.21
same,glycan array binding signal (z-score),[21],-0.286
same,glycan array binding signal (z-score),[22],-0.198
same,glycan array binding signal (z-score),GlcNAc(b1-6)GalNAc,-0.176
same,glycan array binding signal (z-score),GlcNAc3Prop(b1-4)GlcNAc,-0.486
same,glycan array binding signal (z-score),[23],-0.198
same,glycan array binding signal (z-score),Kdn(a2-3)Gal(b1-3)GalNAc,-0.146
same,glycan array binding signal (z-score),Kdn(a2-3)Gal(b1-3)GlcNAc,-0.112
same,glycan array binding signal (z-score),Kdn(a2-3)Gal(b1-4)Glc,-0.23
same,glycan array binding signal (z-score),Kdn(a2-3)Gal(b1-4)GlcNAc,-0.099
same,glycan array binding signal (z-score),[24],-0.137
same,glycan array binding signal (z-score),Kdn(a2-6)Gal(b1-4)GlcNAc,-0.184
same,glycan array binding signal (z-score),[25],0.719
same,glycan array binding signal (z-score),[26],0.639
same,glycan array binding signal (z-score),Man(a1-2)Man(a1-3)Man,-0.017
same,glycan array binding signal (z-score),[27],0.646
same,glycan array binding signal (z-score),[28],0.512
same,glycan array binding signal (z-score),[29],0.303
same,glycan array binding signal (z-score),[30],6.07
same,glycan array binding signal (z-score),[31],2.23
same,glycan array binding signal (z-score),[32],2.03
same,glycan array binding signal (z-score),[33],3.2
same,glycan array binding signal (z-score),Man(a1-3)[Man(a1-6)]Man,4.73
